Experimental findings from PMC5892938 are described below.

Some of the results follow. At the low end of the ranking the order means little.

This experiment concerns the target GST-SBP-SLBP (stem-loop binding protein) (UniProt Q14493). The experiment in a line: targeted RNA Bind-n-Seq.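 Further: DESeq read counts versus GST-SBP nonspecific binding control pulldown.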 The following applies: RBNS binding buffer: 25 mM Tris pH 7.5, 150 mM KCl, 3 mM MgCl2, 0.1% Tween, 0.5 mg/mL BSA, 1 mM DTT; 27 nM protein, 750 pM RNA pool; temperature not stated; high values mean tight binding.
As to “GGUCACGUCUCAAUCAACUCAUACGAGGGGGGGAAAACCCCUUUACCCUCACCAUCAACAGCUCGCAGUCAAG”, the binding signal (log2 fold change) is 0.0959.

With “GGUCACGUCUCAAUCAACUCUCACGAGGGGGGGAAAACCCCUUUACCCUCUUAAUCAACAGCUCGCAGUCAAG”, the binding signal (log2 fold change) worked out at 0.161. “GGUCACGUCUCAAUCAACUCAAUUCCCAGGGAAAGCCCUGGUUUAUUCAACAGCUCGCAGUCAAG”: the binding signal (log2 fold change) was -0.109. Consider “GGUCACGUCUCAAUCAACUCACAAGAGGGGGGGAAAACCCCUUUGCCCUCAUAAUCAACAGCUCGCAGUCAAG”, for which the binding signal (log2 fold change) is -0.548. As for “GGUCACGUCUCAAUCAACUCCUCGGAGGGGGGGAAAACCCCUUUACCCUCACUAUCAACAGCUCGCAGUCAAG”, the binding signal (log2 fold change) turned out to be 0.194. For the sequence “GGUCACGUCUCAAUCAACUCAUUCUCCAGGGAAAGCCCUGGCUUACUCAACAGCUCGCAGUCAAG”, the binding signal (log2 fold change) was -0.0371.

Take “GGUCACGUCUCAAUCAACUCUAAAGAGGGGGGGAAAACCCCUUUGCCCUCAAACUCAACAGCUCGCAGUCAAG”: the binding signal (log2 fold change) amounted to 0.183.

On to “GGUCACGUCUCAAUCAACUCACUAGAGGGGGGGAAAACCCCUUUGCCCUCAACAUCAACAGCUCGCAGUCAAG”, for which the binding signal (log2 fold change) is -0.0129. The value for “GGUCACGUCUCAAUCAACUCAAGUCCAGGAGUUUUCUCCUGCUUUUUCAACAGCUCGCAGUCAAG” was -0.122; that for “GGUCACGUCUCAAUCAACUCUUUCUCCAGGGAAAGCCCUGGUAAAUUCAACAGCUCGCAGUCAAG” was 0.00876; that for “GGUCACGUCUCAAUCAACUCUAUAGAGGGGGGGAAAACCCCUUUACCCUCCGCAUCAACAGCUCGCAGUCAAG” was -0.477. Under “GGUCACGUCUCAAUCAACUCAUUCCCCAGGGAAAUCCCUGGUUAUUUCAACAGCUCGCAGUCAAG” stands -0.0761; under “GGUCACGUCUCAAUCAACUCAAUCUCCAGGGAAAACCCUGGCUAACUCAACAGCUCGCAGUCAAG”, 0.0527; under “GGUCACGUCUCAAUCAACUCUUCAGAGGGGGGGAAAACCCCUUUACCCUCAACCUCAACAGCUCGCAGUCAAG”, -0.347.

“GGUCACGUCUCAAUCAACUCAAUCCCAGGAGUUUUCUCCUGCAAUGUCAACAGCUCGCAGUCAAG”: the binding signal (log2 fold change) is 0.317. For the sequence “GGUCACGUCUCAAUCAACUCAUUCCCCAGGGAAAGCCCUGGUAUACUCAACAGCUCGCAGUCAAG”, the binding signal (log2 fold change) is -0.0868. As to “GGUCACGUCUCAAUCAACUCCACAGAGGGGGGGAAAACCCCUUUACCCUCAUACUCAACAGCUCGCAGUCAAG”, the binding signal (log2 fold change) was -0.713. The value for “GGUCACGUCUCAAUCAACUCUUCCCCCAGGGAAAUCCCUGGUUAUUUCAACAGCUCGCAGUCAAG” was 0.297. The value for “GGUCACGUCUCAAUCAACUCAUUUCCAGGAGUUUUCUCCUGCUUAGUCAACAGCUCGCAGUCAAG” was -0.00368; that for “GGUCACGUCUCAAUCAACUCUUCCCCCAGGGAAAUCCCUGGUUUAUUCAACAGCUCGCAGUCAAG” was 0.0378. The value for “GGUCACGUCUCAAUCAACUCUUCCUCAGGAGUUUUCUCCUGCUAUCUCAACAGCUCGCAGUCAAG” was 0.0992; that for “GGUCACGUCUCAAUCAACUCAUUUUCAGGAGUUUUCUCCUGCAUUCUCAACAGCUCGCAGUCAAG” was -0.187; that for “GGUCACGUCUCAAUCAACUCAAUGUCAGGAGUUUGCUCCUGCUAAUUCAACAGCUCGCAGUCAAG” was 0.116. In the case of “GGUCACGUCUCAAUCAACUCACCCGAGGGGGGGAAAACCCCUUUACCCUCAAAAUCAACAGCUCGCAGUCAAG”, the binding signal (log2 fold change) was -0.251. For “GGUCACGUCUCAAUCAACUCUAUUUCAGGAGUUUCCUCCUGUUAACUCAACAGCUCGCAGUCAAG”, the binding signal (log2 fold change) was -0.0415.

Turning to “GGUCACGUCUCAAUCAACUCAUUCUCCAGGGAAACCCCUGGUAAACUCAACAGCUCGCAGUCAAG”, the binding signal (log2 fold change) is 0.0104.

Regarding “GGUCACGUCUCAAUCAACUCUUCCCCCAGGGAAACCCCUGGCAAAUUCAACAGCUCGCAGUCAAG”, the binding signal (log2 fold change) was 0.221. Take “GGUCACGUCUCAAUCAACUCAGUUUCCAGGGAAAUCCCUGGCUUUUUCAACAGCUCGCAGUCAAG”: the binding signal (log2 fold change) is 0.0938. On to “GGUCACGUCUCAAUCAACUCAUGUCCAGGAGUUUACUCCUGUAUUUUCAACAGCUCGCAGUCAAG”, for which the binding signal (log2 fold change) was -0.213.

Turning to “GGUCACGUCUCAAUCAACUCCAAAGAGGGGGGGAAAACCCCUUUGCCCUCAUUAUCAACAGCUCGCAGUCAAG”, the binding signal (log2 fold change) was -0.299.

On to “GGUCACGUCUCAAUCAACUCAUCCUCCAGGGAAAACCCUGGCAAUUUCAACAGCUCGCAGUCAAG”, for which the binding signal (log2 fold change) was -0.337. As to “GGUCACGUCUCAAUCAACUCAAUCCCAGGAGUUUACUCCUGUAAAGUCAACAGCUCGCAGUCAAG”, the binding signal (log2 fold change) was 0.197. Under “GGUCACGUCUCAAUCAACUCUUCUCCCAGGGAAACCCCUGGCUAUGUCAACAGCUCGCAGUCAAG” stands 0.0327. Regarding “GGUCACGUCUCAAUCAACUCUCCAGAGGGGGGGAAAACCCCUUUACCCUCAUACUCAACAGCUCGCAGUCAAG”, the binding signal (log2 fold change) was -0.478.

For the sequence “GGUCACGUCUCAAUCAACUCUUUUCCCAGGGAAAUCCCUGGUAAUUUCAACAGCUCGCAGUCAAG”, the binding signal (log2 fold change) was -0.105. On to “GGUCACGUCUCAAUCAACUCUUUUUCAGGAGUUUCCUCCUGCAUACUCAACAGCUCGCAGUCAAG”, for which the binding signal (log2 fold change) came to 0.151.

“GGUCACGUCUCAAUCAACUCAUCCCCCAGGGAAAACCCUGGCAAUCUCAACAGCUCGCAGUCAAG”: the binding signal (log2 fold change) was -0.0581.
